Results taken from the supplement of paper PMC11417369.
± gives the standard deviation of the averaged measurements. Some of the results follow.

test system: PfAP2-G AP2 domain (GST-tagged); experiment: gcPBM binding intensity (ln(normalized median fluorescence intensity)); higher = stronger DNA binding
Summary of the method: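 Binding intensity is defined as the maximum Masliner-normalised natural-log median intensity across replicate spots for either probe orientation. It was measured on an Agilent 4 × 180k array of primer-extended double-stranded 36-bp intergenic genomic probes and negative controls, to which GST-tagged P. falciparum DNA-binding domains made in E. coli were applied for 1 h in 1× PBS with 1% milk, 0.2 mg/ml BSA, 0.5% salmon testes DNA and 0.03% Triton X-100. Detection was by Alexa488 anti-GST antibody and scanning at 488 nm.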

Sequence	gcPBM binding intensity (ln)
CATTTAACATAAATTAAACACACAATATAATACATT [CACACA_site8333]	9.995 ± 0.007
AAAGATAAAATATTATGTACATATATATATATATAT [XGTACX_site5079]	11.1 ± 0.56
TGTATAAAAGTTTATACACACATTTGATATATTTCA [CACACA_site6606]	9.79 ± 0.014
TATAAAAAAAACAAAAAAAAAAAAAAACAAAAAAAA [TGCATGCA_negctrl_site514]	9.76 ± 0.12
TTTTTTTGTTGTTGTTGTACGATATTTTCCTTATCA [XGTACX_site2375]	11.3 ± 0.77
GGGAATATAAGTACACGATAATATGTGATAAGGTCT [CACACA_negctrl_site1502]	11.5 ± 1
TTTTATTTTTATTATACACACGCTTAATAAATGCAT [CACACA_site1751]	10.03 ± 0.064
ATTAAATACATTAACACACACACAAATATATACATA [CACACA_site2881]	10.1 ± 0.19
AATAATAATACTAATCGTACGCATATTTTTCAAACC [XGTACX_site8055]	11.3 ± 0.76
TTTATAAAAATGAACACACACATATAAATATAAATA [CACACA_site7607]	10.1 ± 0.16
TTTTAAATATGAACATGTACATGTAAATTTACATGT [XGTACX_site4573]	11.2 ± 0.76
AATAATATATTTAGGGGTACATAATAATATATTTTA [XGTACX_site8366]	11.6 ± 1.1
AAAAATAGAATAAATACACACCCGTGTAACGGATTT [CACACA_site3372]	9.63 ± 0.29
TAAACATTTGGCTGATGTACTTGCTACCTTAAATCA [XGTACX_site5514]	11.1 ± 0.59
ATTTTTGTGTATTAATGTACTTTATGCATATTTGAC [XGTACX_site3353]	11.2 ± 0.73
TTTTAATTTATTAATTGTACATGTATTTTAAGATTA [XGTACX_site8417]	11 ± 0.63
TTATTATTAAAAAAAAGTACAGAATTGAATAATACA [XGTACX_site651]	11.5 ± 0.95
TATTTTTATAAGTAAAAGGAGCACAGTTAAAGGATC [XGTACX_negctrl_site362]	10.6 ± 0.47
TATAAATAAAGATATACACACATATAAATATTTTTC [CACACA_site7798]	9.78 ± 0.099

Sequence	gcPBM binding intensity (ln)
TTGGTCTTTTAAAAAAGTACAAAAAAAAAAAAAAAA [XGTACX_site1665]	11.2 ± 1
TAGTATTAGATATATACACACATATATACCTATAGA [CACACA_site7083]	9.795 ± 0.078
GATAAATTAAGACACACACACATATATTTATTTATA [CACACA_site7789]	10.1 ± 0.2
AAAAAAGAACGCATAGTGCATATCTAAAAGATTTTT	9.85 ± 0.014
TATAAAAAAATATTATAATATATATATATATATATA [XGTACX_negctrl_site41]	9.77 ± 0.45
AATATTTATATTTACACACACATAATACATCTATGT [CACACA_site4187]	10 ± 0.014
TTACGATCATCAATATGTACATATATATATATATAT [XGTACX_site4301]	11.1 ± 0.61
ATTTTTTTTTTTATAGTGGATCCACATTTGCCATTT [CACACA_negctrl_site1106]	10.4 ± 0.35
ATATATATATATATATGTACATACTATACAATAATT [XGTACX_site3546]	11.3 ± 0.48
ATTATTATTAAATACACACACATACCTCCATGTTAG [CACACA_site3430]	10.1 ± 0.13
AACAGATAAAAGGGTACACACATATATACAAGTACA [CACACA_site7959]	11.7 ± 0.83
TATATAGATATGATAGTGCATTTTTAGAAAACATAA [GTGCAC_site9962]	10 ± 0.14
TTATGTAGCTAGCTATAAACTTTTTTTTATTTAAAA [CACACA_negctrl_site1297]	9.7 ± 0.057
AGAACTTTTAATGGATGTACAGTTATTTTATTATTT [XGTACX_site6226]	11.1 ± 0.32
ATATAGTAAATTGGTAGTACATAAAATGATTTTATG [XGTACX_site4143]	11.6 ± 0.95
GATATAATTATGTGTACACAATTTTTTTTTTTTTTT [CACACA_site4501]	11.7 ± 0.87
AAATAAAGGAAATAAAAAGAAACCAATTTCGAATAT [CACACA_negctrl_site953]	9.86 ± 0.18
ATATGTATGTATAATCGTACAAAATTTGGCGATCTT [XGTACX_site8698]	10.9 ± 0.55
TTTATATGTATTAATTGTACACATATAATGTGTTTT [XGTACX_site3064]	11.3 ± 0.78

Sequence	gcPBM binding intensity (ln)
TTTTTTTTAAAACTATGTACGTAAAAATTGTAGTTT [XGTACX_site2302]	11.7 ± 0.91
CGAAAAAGTGATATAGTGCAAAATTTTCATTTCTCT	9.84 ± 0.014
AAAAAAAAAACATACACACATACATACATATATATT [CACACA_site949]	9.78
ATGAAGAATTTATATTGTACCCATTTTTATGTAAAT [XGTACX_site2528]	11.4 ± 0.93
AAGAATAAGAAGAAGGATCCCCTTCAAAAAAAAAAA [TGCATGCA_negctrl_site525]	9.89 ± 0.28
TTGTTATTATATTACGCATGCATCATTTATTTGCAC [TGCATGCA_site525]	10.1 ± 0.064
AAAGGGAATTATGGCTGTACGCATTTTATAAATAGC [XGTACX_site5878]	11.6 ± 0.89
TGCTGTATATTTTTCTGTACACATTTATATATTCCA [XGTACX_site6244]	11.6 ± 0.87
TTTTTTTTTCTTCTTTTCAAATTTAAGAAATTATAA [CACACA_negctrl_site18]	9.83 ± 0.28
AATATTTTTGTCGTTAGTACATAAAAAATAATAATA [XGTACX_site3074]	11.2 ± 0.76
CAAACAAACGAACACACACACACACGCAAAAATGAT [CACACA_site7194]	10.3 ± 0.35
ATAATTAAAATGCTCACACACATAAAAAAAAATTAA [CACACA_site2149]	10.1 ± 0.31
AATAATAAAGTGAACACACACATATAATATATATAT [CACACA_site4143]	9.99 ± 0.26
AAAAATTGAATTTTTTTTTTTTTTTTGAGAAGGAAA [CACACA_negctrl_site1196]	9.53 ± 0.057
ATAATTTTATCATATATATATATATATAAATACTTA [CACACA_negctrl_site743]	9.78 ± 0.14
ATGCTTTTATGCACACGTACAAAAATATTATATAAT [XGTACX_site5589]	11.1 ± 0.67
ATAAATTAACATTAAAGTACATTTTAATAAATATTA [XGTACX_site3647]	10.9 ± 0.77
ATACATATATATAATACACACATAAATGTAACATTT [CACACA_site3518]	10.06 ± 0.064
